Source: PubChem BioAssay AID1745853 (National Center for Advancing Translational Sciences (NCATS), 2022)
The other results are listed elsewhere or left out. These are further read-outs of the screen, such as a control signal, another cell line or another target. No call is given for them.

How the values were obtained:
Test in all cases: Primary Screen for Target Class Profiling of Small Molecule Inhibitors of Methyltransferases
[1] = molecular target: Glycine N-methyltransferase (Homo sapiens) (UniProt Q14749); details: purified enzyme, MTase-Glo SAH luminescence; measured here: GNMT inhibition; at 40 µM; stronger effect = lower value
Procedure, shortened: (§1)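 Each enzyme was assayed with SAM and its substrate. SAH formation detected by MTase-Glo luminescence; single-point 40 uM screen[…].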

[2] = molecular target: Guanidinoacetate N-methyltransferase (Homo sapiens) (UniProt Q14353); details: purified enzyme, MTase-Glo SAH luminescence; measured here: GAMT inhibition; at 40 µM; stronger effect = lower value
Procedure, shortened: as §1

[3] = molecular target: Histamine N-methyltransferase (Homo sapiens) (UniProt P50135); details: purified enzyme, MTase-Glo SAH luminescence; measured here: HNMT inhibition; at 40 µM; stronger effect = lower value
Procedure, shortened: as §1

[4] = molecular target: Nicotinamide N-methyltransferase (Homo sapiens) (UniProt P40261); details: purified enzyme, MTase-Glo SAH luminescence; measured here: NNMT inhibition; at 40 µM; stronger effect = lower value
Procedure, shortened: as §1

[5] = molecular target: Phenylethanolamine N-methyltransferase (Homo sapiens) (UniProt P11086); details: purified enzyme, MTase-Glo SAH luminescence; measured here: PNMT inhibition; at 40 µM; stronger effect = lower value
Procedure, shortened: as §1
% is scaled to controls: 0 for no effect and ±100 for the full control effect.

Compound | activity change, negative = inhibition [1] | activity change, negative = inhibition [2] | activity change, negative = inhibition [3] | activity change, negative = inhibition [4] | activity change, negative = inhibition [5]
COc1ccc(CN2C(=O)c3cc4sccc4n3CC2(C)C(=O)NC2CCC(C)CC2)cc1 (stereo not drawn) | 1.33% | 0.597% | 0.498% | -1.17% | -0.62%
CC(C)NC(=O)[C@@H]1C[C@@H](N)CN1C(=O)c1cccc2ccccc12 | -2.66% | -6.55% | -3.05% | -4.08% | -5.88%
O=C(CCCc1nnc2n3nc(-c4ccccc4)nc3c3ccccc3n12)N1CCN(c2ccc(F)cc2)CC1 | -12% | 5.54% | 1.59% | -0.026% | -5.51%
Cc1ccccc1CN1C(=O)c2cc3sccc3n2CC1(C)C(=O)NC1CCCCCCC1 (stereo not drawn) | 8.06% | 0.041% | 9.43% | 7.76% | 2.23%
O=C1CCN(C(=O)c2cc3ccccc3[nH]2)CCCCCCN1 | -3.5% | -2.52% | -0.732% | -5.63% | -13.2%
COc1ccccc1Nc1nc2c(S(=O)(=O)c3ccc(C)cc3)nnn2c2ccccc12 | 4.01% | 1.97% | 4.74% | 8.06% | -2.05%
COc1cc(CO)ccc1O[C@@H]1O[C@H](CO)[C@@H](O)[C@H](O)[C@H]1O | -0.897% | -5.5% | 4.75% | -13.2% | -1.17%
CC(=O)OC1[C@H]2[C@@H](C[C@@H](C)[C@@H]3C=CC(=O)[C@@]13C)OC(=O)[C@@H]2C (stereo partly drawn) | -6.12% | -8.15% | 5.17% | -16% | 2.13%
O=C(CCCc1c[nH]c2ccccc12)N1CCc2nc3cc[nH]n3c(=O)c2C1 | -8.11% | -9.84% | -7.37% | -11.9% | -17.4%
CC1=C(C(=O)Nc2cc(Cl)ccc2Cl)C(c2ccco2)C2=C(CCCC2=O)N1 (stereo not drawn) | -12.9% | -0.985% | 7.09% | -20.7% | -0.542%
Cc1ccc(NC(=O)Cn2nc3n(CCc4ccccc4)c(=O)c4ccccc4n3c2=O)cc1C | 2.64% | 3.02% | 4.06% | 0.008% | 0.337%
NS(=O)(=O)c1cc2c(cc1Cl)NC=NS2(=O)=O | 7.02% | 11.9% | 9.49% | -5.55% | 3.01%
COc1ccc(CCN2C(=O)c3nc4ccccc4n3CC2(C)C(=O)NC2CCCC2)cc1OC (stereo not drawn) | 0.45% | 0.359% | -2.67% | -15.4% | -1.89%
Cn1c(=O)c2[nH]c(-c3ccccc3)nc2n(C)c1=O | 4.29% | 13% | 4.52% | -0.597% | 11.6%
CCCN1C(=O)c2c(C(=O)NCc3ccc(OC)c(OCC)c3)ncn2CC1(C)C(=O)NC1CCCC1 (stereo not drawn) | -3.78% | 0% | -5.62% | -8.93% | 0.551%
S=c1ssc2c1CCC2 |  | -3.2% |  | -70.5% | -62.2%
O=c1c2ccccc2n2c(=O)n(Cc3ccccc3Cl)nc2n1Cc1ccccc1 | -2.17% | 3.74% | 6.92% | -2.04% | -2.16%
COC(=O)C1=CO[C@@H](O[C@@H]2O[C@H](CO)[C@@H](O)[C@H](O)[C@H]2O)[C@@H]2C(CO)=CC[C@H]12 | -2.38% | -6.09% | 0.931% | -15.2% | 0.287%
COc1ccc([C@H](Cc2ccncc2)c2ccccc2)cc1OC1CCCC1 | -1.84% | 2.92% | 4.33% | -19.9% | -5.01%
